Out of some 94,000 compounds screened, about 6,200 (6.6%) were called active. Inconclusive means that the source gave no clear call. Such entries were picked first, then a sample of the others. Calls follow the shape of the dose curve; as a rule, active = well fitted inhibition curve with a large enough effect; inconclusive = small, poorly fitted or top-dose-only effect; inactive = flat fitted curve, though single readings scatter. Potencies beside an inconclusive call are fits to weak or partial responses and may not hold up.
assay: Cytotoxic Profiling in HEK 293 Cell Line of Diverse Libraries Using Quantitative High-Throughput Screening; conditions: HEK 293 viability, ATP luminescence (CellTiter-Glo), 48-72 h; series mostly up to 115 µM; also: nearly all actives have a fitted effect of over 60% in size
Procedure, shortened: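 qHTS cytotoxicity; HEK 293, 250 cells/well; compound pinned; 48 or 72 hr, 37 degree Celsius, 5% CO2, 95% humidity; CellTiter-Glo, 10 min RT; luminescence (ATP).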
Potency is read from the fitted curve at half-maximal effect; tags tell the direction and shape of the fitted curve.

Row | SMILES | Potency
1 | CC(C)(C)C(=O)N[C@@H](Cn1ccc(=O)[nH]c1=O)C(=O)O | inactive
2 | Cc1ccc2nc(NC(=O)Cn3nc4c(cc3=O)CCCCC4)sc2c1 | inconclusive: 79.4 µM [inhibitor, partial curve, poor fit]
3 | Cc1cccc(-c2noc([C@@H]3Cc4nc[nH]c4CN3C(=O)c3ccc(F)cc3)n2)c1 | inconclusive: 89.1 µM [inhibitor, partial curve]
4 | Cc1ncsc1CN1CC[C@@H]2C(=O)NCCCCCCN(Cc3ccncc3)[C@@H]2C1 | inconclusive: 100 µM [inhibitor, partial curve, poor fit]
5 | COc1ccc(-c2nc(C(C)C)nc3c2CCN(C(=O)c2cccc(Cl)c2)CC3)cc1 | inconclusive: 44.7 µM [inhibitor, partial curve, poor fit]
6 | CC[C@H]1CN(C(=O)Nc2cccc(OC)c2)CC[C@H]1CC(=O)N(C)CCC#N | inconclusive: 100 µM [inhibitor, partial curve, poor fit]
7 | COc1ccc(-c2cc(N3CCC(NC(=O)COc4ccc(F)cc4)CC3)n[nH]2)cc1 | inconclusive: 44.7 µM [inhibitor, partial curve, poor fit]
8 | OC[C@@H]1CNC[C@H]1C1CCN(Cc2ccc(Br)s2)CC1 | inconclusive: 79.4 µM [inhibitor, partial curve]
9 | Cc1ccc(CN2CCCCC23Cc2ccccc2CNC3=O)cc1C (centres undefined) | inconclusive: 50.1 µM [inhibitor, partial curve, poor fit]
10 | Cc1cn2nc(C(=O)Nc3ccc4c(c3)OCO4)cc2c(N2CCCC2)n1 | inactive
11 | CC(C)(C)c1cc(CC2(NCc3ccc(Cl)cc3)COC2)no1 | inconclusive: 79.4 µM [inhibitor, partial curve]
12 | COc1ccc(OC)c(CN2CCC3(CC2)OC(=O)N(Cc2ccc(O)cc2)C3(C)c2ccccc2)c1 (centres undefined) | inconclusive: 50.1 µM [inhibitor, partial curve]
13 | Cn1cc(CN2C[C@@H]3C[C@H](C2)c2ccc(NC(=O)COc4ccccc4)c(=O)n2C3)c2ccccc21 | inconclusive: 28.2 µM [inhibitor, full curve]
14 | CNC(=O)[C@@H]1C[C@@H](O)CN1C1CCN(C(=O)c2ccccc2)CC1 | inactive
15 | CC(=O)NC1CCN(c2nccc(Nc3ccccc3Cl)n2)CC1 | inconclusive: 44.7 µM [inhibitor, full curve, poor fit]
16 | CC(C)NC(=O)N1C[C@@H](Oc2cccnc2)C[C@H]1C(=O)N1CCOCC1 | inactive
17 | COc1ccc2ccc(OCc3nc(C(=O)N4CCCNC(=O)C4)co3)cc2c1 | inconclusive: 50.1 µM [inhibitor, partial curve, poor fit]
18 | CCc1ccccc1CN1CCCC2(Cc3ccccc3CNC2=O)C1 (centres undefined) | inconclusive: 56.2 µM [inhibitor, partial curve, poor fit]
19 | COc1cccc(-c2ccc(CN3C4CCC3CN(C(C)C)C4)cc2)c1 | inactive
20 | Cc1ccc(S(=O)(=O)N2CCn3c(nn(CC4CC4)c3=O)C2)c(C)c1 | inconclusive: 70.8 µM [inhibitor, single point]

Row | SMILES | Potency
21 | O=C(c1csc2nc(-c3ccc(F)cc3)cn12)N1C[C@H]2CC[C@@H](C1)N2 | inconclusive: 89.1 µM [inhibitor, single point]
22 | COc1cc(Cl)ccc1OCc1nc2c(n1Cc1ccccc1)C(=O)N(CC1CCOCC1)CCN2 | inconclusive: 50.1 µM [inhibitor, partial curve, poor fit]
23 | O=S(=O)(c1ccccc1)N1CCN(c2ccc3nnc(C4CC4)n3n2)CC1 | inconclusive: 56.2 µM [inhibitor, partial curve, poor fit]
24 | Cc1ccc(-n2nc(C)c([C@@H]3C=C[C@@H](NCc4cccc(C#N)c4)C3)c2C)cc1Cl | active: 25.1 µM
25 | Cc1ccc(C(=O)N2CCn3c(nnc3-c3ccc(Cl)cc3)C2)cc1 | inactive
26 | CS(=O)(=O)N1CCCN(C(=O)Nc2ccccc2)CCNC(=O)CC1c1ccccc1 (centres undefined) | inactive
27 | Cc1ccc(NC(=O)N2CCc3c(C(=O)NCCc4ccccn4)cccc32)cc1 | inconclusive: 50.1 µM [inhibitor, partial curve, poor fit]
28 | O=C(C1CCCN1C(=O)c1cccc(Cl)c1)N1CCC(N2Cc3ccccc3C2=O)CC1 (centres undefined) | inconclusive: 89.1 µM [inhibitor, single point]
29 | CCCc1noc(-c2cn(C3CCN(C(=O)c4ccc(N(C)C)cc4)CC3)nn2)n1 | inconclusive: 28.2 µM [inhibitor, full curve]
30 | COc1ccccc1Oc1c(CCC(=O)NCc2ccccc2)c(C)nn1-c1ccc(F)cc1 | inconclusive: 50.1 µM [inhibitor, partial curve, poor fit]
31 | COCCN1C(=O)N(C2Cc3ccccc3C2)C(=O)C12CCN(Cc1ccc(CO)o1)CC2 | inactive
32 | Cc1cc(C)cc(-c2ccc(CN3CCCC3C(=O)NCc3cccc(F)c3)cc2)c1 (centres undefined) | inconclusive: 44.7 µM [inhibitor, partial curve, poor fit]
33 | COc1ccc(N2CC3CCC(C2)N3Cc2ccc(-c3cccnc3)cc2)cc1 | inconclusive: 89.1 µM [inhibitor, single point]
34 | O=C(Nc1ccc2c(c1)OCO2)C1CCCN(c2cnn(Cc3ccccc3)c(=O)c2)C1 (centres undefined) | inconclusive: 39.8 µM [inhibitor, partial curve, poor fit]
35 | CNC(=O)CCn1ncc2cc(OCc3ccccc3-c3ccc(F)c(Cl)c3)ccc21 | active: 100 µM
36 | CN1Cc2cccn2CC1CNC(=O)Nc1cccc(F)c1 (centres undefined) | inconclusive: 100 µM [inhibitor, single point]
37 | C=CCCC(CN1CCOCC1)Oc1nccc(N(C)CC)n1 (centres undefined) | inconclusive: 17.8 µM [inhibitor, full curve, poor fit]
38 | CCOCCCNC(=O)C1CCCN1Cc1ccc(-c2cncnc2)cc1 (centres undefined) | inactive
39 | O=C1NCc2ccccc2CC12CCN(Cc1c(Cl)cncc1Cl)C2 (centres undefined) | inconclusive: 56.2 µM [inhibitor, partial curve, poor fit]
